The other results are listed elsewhere or left out.

The target in this assay is T1, MBP-FoxP1dN (Mus musculus, UniProt P58462 326-579).
T1 sequence: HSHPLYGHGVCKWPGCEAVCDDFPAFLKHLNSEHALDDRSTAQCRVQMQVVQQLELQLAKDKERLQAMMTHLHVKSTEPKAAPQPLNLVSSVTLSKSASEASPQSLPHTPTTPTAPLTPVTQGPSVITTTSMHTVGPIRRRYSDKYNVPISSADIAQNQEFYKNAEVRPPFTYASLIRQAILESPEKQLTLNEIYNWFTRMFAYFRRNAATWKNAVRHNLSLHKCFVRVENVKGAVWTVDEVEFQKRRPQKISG
As to the kind of experiment: PD-seq (MBP pull-down with sequencing); 20 mM Tris-HCl pH 7.5, 100 mM NaCl, 1.5 mM MgCl2, 0.4 uM protein, 0.1 uM dsDNA library, 30 min, room temperature, amylose pull-down; high values mean tight binding. The conditions noted are these: protein: recombinant; tags: His6-MBP; chain copies: 2; dsDNA, one strand shown. In a few lines: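 E. coli-expressed mouse FoxP3 or FoxP1 fragment, N-terminus removed and tagged with His6-MBP, was used at 0.4 µM against 0.1 µM of a Klenow-filled degenerate double-stranded DNA library. After 30 min at room temperature in Tris pH 7.5 buffer with NaCl and MgCl2, complexes were pulled down on amylose resin and washed three times. Binding is pull-down over input reads-per-million enrichment from pooled replicates of the proteinase K-released, PCR-barcoded, Illumina-sequenced DNA.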
Take “GATGATTGTTCTCCCAGCTGATGAATTAAATCAGTCGAGTAAACAAATTTTCCTAATCTTTCTGTTCAAGCGCCATCTAC”: the binding signal is 0.978 RPM ratio (pull-down/input).
The result for “GATGATTGTTCTCCCAGCTGATGAATTCTTTTCATCGAGTAAACAAATTTTCCTAATCTTTCTGTTCAAGCGCCATCTAC” reads 1.07 RPM ratio (pull-down/input); that for “GATGATTGTTCTCCCAGCTGATGAATTCATGGTGTCGAGTAAACAAATTTTCCTAATCTTTCTGTTCAAGCGCCATCTAC”, 0.976 RPM ratio (pull-down/input).
The result for “GATGATTGTTCTCCCAGCTGATGAATTTAAAGTATCGAGTAAACAAATTTTCCTAATCTTTCTGTTCAAGCGCCATCTAC” reads 1.07 RPM ratio (pull-down/input); that for “GATGATTGTTCTCCCAGCTGATGAATTTAAGTCTTCGAGTAAACAAATTTTCCTAATCTTTCTGTTCAAGCGCCATCTAC”, 0.922 RPM ratio (pull-down/input); that for “GATGATTGTTCTCCCAGCTGATGAATTAAGGTTGTCGAGTAAACAAATTTTCCTAATCTTTCTGTTCAAGCGCCATCTAC”, 1 RPM ratio (pull-down/input).
The result for “GATGATTGTTCTCCCAGCTGATGAATTAACGTGATCGAGTAAACAAATTTTCCTAATCTTTCTGTTCAAGCGCCATCTAC” reads 0.878 RPM ratio (pull-down/input); that for “GATGATTGTTCTCCCAGCTGATGAATTTTGAGTTTCGAGTAAACAAATTTTCCTAATCTTTCTGTTCAAGCGCCATCTAC”, 0.924 RPM ratio (pull-down/input).
Regarding “GATGATTGTTCTCCCAGCTGATGAATTGGTGCTATCGAGTAAACAAATTTTCCTAATCTTTCTGTTCAAGCGCCATCTAC”, the binding signal was 1.08 RPM ratio (pull-down/input).
Turning to “GATGATTGTTCTCCCAGCTGATGAATTAGGGCTATCGAGTAAACAAATTTTCCTAATCTTTCTGTTCAAGCGCCATCTAC”, the binding signal is 0.956 RPM ratio (pull-down/input).
In the case of “GATGATTGTTCTCCCAGCTGATGAATTCAATCAGTCGAGTAAACAAATTTTCCTAATCTTTCTGTTCAAGCGCCATCTAC”, the binding signal is 0.877 RPM ratio (pull-down/input).
The figure for “GATGATTGTTCTCCCAGCTGATGAATTTAAACGCTCGAGTAAACAAATTTTCCTAATCTTTCTGTTCAAGCGCCATCTAC” is 0.958 RPM ratio (pull-down/input); for “GATGATTGTTCTCCCAGCTGATGAATTCAGCGGTTCGAGTAAACAAATTTTCCTAATCTTTCTGTTCAAGCGCCATCTAC” it is 0.859 RPM ratio (pull-down/input); for “GATGATTGTTCTCCCAGCTGATGAATTTCACTGGTCGAGTAAACAAATTTTCCTAATCTTTCTGTTCAAGCGCCATCTAC” it is 0.806 RPM ratio (pull-down/input).
As for “GATGATTGTTCTCCCAGCTGATGAATTTGTCATCTCGAGTAAACAAATTTTCCTAATCTTTCTGTTCAAGCGCCATCTAC”, the binding signal is 1.19 RPM ratio (pull-down/input).
The result for “GATGATTGTTCTCCCAGCTGATGAATTTCTTCTTTCGAGTAAACAAATTTTCCTAATCTTTCTGTTCAAGCGCCATCTAC” reads 1.01 RPM ratio (pull-down/input); that for “GATGATTGTTCTCCCAGCTGATGAATTCAGGCTATCGAGTAAACAAATTTTCCTAATCTTTCTGTTCAAGCGCCATCTAC”, 0.847 RPM ratio (pull-down/input).
The result for “GATGATTGTTCTCCCAGCTGATGAATTCATTCATTCGAGTAAACAAATTTTCCTAATCTTTCTGTTCAAGCGCCATCTAC” reads 0.842 RPM ratio (pull-down/input).
The result for “GATGATTGTTCTCCCAGCTGATGAATTAGTTCGCTCGAGTAAACAAATTTTCCTAATCTTTCTGTTCAAGCGCCATCTAC” reads 0.858 RPM ratio (pull-down/input); that for “GATGATTGTTCTCCCAGCTGATGAATTGACAACTTCGAGTAAACAAATTTTCCTAATCTTTCTGTTCAAGCGCCATCTAC”, 1.49 RPM ratio (pull-down/input); that for “GATGATTGTTCTCCCAGCTGATGAATTCGAGCGTTCGAGTAAACAAATTTTCCTAATCTTTCTGTTCAAGCGCCATCTAC”, 0.878 RPM ratio (pull-down/input).
Consider “GATGATTGTTCTCCCAGCTGATGAATTTTGTTCGTCGAGTAAACAAATTTTCCTAATCTTTCTGTTCAAGCGCCATCTAC”, for which the binding signal was 0.983 RPM ratio (pull-down/input).
The result for “GATGATTGTTCTCCCAGCTGATGAATTCTCAGTTTCGAGTAAACAAATTTTCCTAATCTTTCTGTTCAAGCGCCATCTAC” reads 0.783 RPM ratio (pull-down/input).
The figure for “GATGATTGTTCTCCCAGCTGATGAATTACACGTGTCGAGTAAACAAATTTTCCTAATCTTTCTGTTCAAGCGCCATCTAC” is 1.18 RPM ratio (pull-down/input); for “GATGATTGTTCTCCCAGCTGATGAATTACGGTGGTCGAGTAAACAAATTTTCCTAATCTTTCTGTTCAAGCGCCATCTAC” it is 0.954 RPM ratio (pull-down/input).
The result for “GATGATTGTTCTCCCAGCTGATGAATTCCTAGGATCGAGTAAACAAATTTTCCTAATCTTTCTGTTCAAGCGCCATCTAC” reads 0.842 RPM ratio (pull-down/input); that for “GATGATTGTTCTCCCAGCTGATGAATTACTCGAGTCGAGTAAACAAATTTTCCTAATCTTTCTGTTCAAGCGCCATCTAC”, 0.914 RPM ratio (pull-down/input).
Regarding “GATGATTGTTCTCCCAGCTGATGAATTGCCCAAATCGAGTAAACAAATTTTCCTAATCTTTCTGTTCAAGCGCCATCTAC”, the binding signal was 1.09 RPM ratio (pull-down/input).
The figure for “GATGATTGTTCTCCCAGCTGATGAATTCTCCGCCTCGAGTAAACAAATTTTCCTAATCTTTCTGTTCAAGCGCCATCTAC” is 0.896 RPM ratio (pull-down/input).
As for “GATGATTGTTCTCCCAGCTGATGAATTGTCCACGTCGAGTAAACAAATTTTCCTAATCTTTCTGTTCAAGCGCCATCTAC”, the binding signal is 0.978 RPM ratio (pull-down/input).
The result for “GATGATTGTTCTCCCAGCTGATGAATTTATCCTCTCGAGTAAACAAATTTTCCTAATCTTTCTGTTCAAGCGCCATCTAC” reads 0.985 RPM ratio (pull-down/input).
The figure for “GATGATTGTTCTCCCAGCTGATGAATTCGACAGGTCGAGTAAACAAATTTTCCTAATCTTTCTGTTCAAGCGCCATCTAC” is 0.756 RPM ratio (pull-down/input); for “GATGATTGTTCTCCCAGCTGATGAATTGGTGGACTCGAGTAAACAAATTTTCCTAATCTTTCTGTTCAAGCGCCATCTAC” it is 0.911 RPM ratio (pull-down/input); for “GATGATTGTTCTCCCAGCTGATGAATTTATCTGTTCGAGTAAACAAATTTTCCTAATCTTTCTGTTCAAGCGCCATCTAC” it is 0.988 RPM ratio (pull-down/input).
The figure for “GATGATTGTTCTCCCAGCTGATGAATTCGGCCGATCGAGTAAACAAATTTTCCTAATCTTTCTGTTCAAGCGCCATCTAC” is 0.792 RPM ratio (pull-down/input); for “GATGATTGTTCTCCCAGCTGATGAATTTGAAATCTCGAGTAAACAAATTTTCCTAATCTTTCTGTTCAAGCGCCATCTAC” it is 0.737 RPM ratio (pull-down/input); for “GATGATTGTTCTCCCAGCTGATGAATTATCCGATTCGAGTAAACAAATTTTCCTAATCTTTCTGTTCAAGCGCCATCTAC” it is 0.95 RPM ratio (pull-down/input).
Regarding “GATGATTGTTCTCCCAGCTGATGAATTTTACAGCTCGAGTAAACAAATTTTCCTAATCTTTCTGTTCAAGCGCCATCTAC”, the binding signal is 0.813 RPM ratio (pull-down/input).
The result for “GATGATTGTTCTCCCAGCTGATGAATTCTCCCATTCGAGTAAACAAATTTTCCTAATCTTTCTGTTCAAGCGCCATCTAC” reads 0.975 RPM ratio (pull-down/input); that for “GATGATTGTTCTCCCAGCTGATGAATTTCCCACTTCGAGTAAACAAATTTTCCTAATCTTTCTGTTCAAGCGCCATCTAC”, 0.889 RPM ratio (pull-down/input).

The values above are taken from publication PMC12820563, “FoxP3 forms a head-to-head dimer in vivo and stabilizes its multimerization on adjacent microsatellites”.
